Experimental data reported in PubChem BioAssay AID1508624 (National Center for Advancing Translational Sciences (NCATS), 2021).
Screen size: about 48,000 compounds; about 120 (0.25%) were called active. Inconclusive results (about 4%) are left out. The call rests on the fitted dose curve; in most records, active means well fitted activation curve with a large enough effect; inconclusive means small, poorly fitted or top-dose-only effect, or another doubt; inactive means no such curve, though single readings can be large or run the other way. The list shows a part of the results.

Assay: Primary qHTS for Identification of Small Molecule Activators of Huntingtin-Antisense Promoter Activity; further: nearly all actives have a fitted effect of over 55% in size
Conditions: HEK293 HTT-AS promoter firefly luciferase reporter, 24 h; series mostly up to 57.5 µM; activity change, positive = activation: at the top concentration
In short: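 HEK293 cells carrying firefly luciferase reporters were seeded at 2,500 per well in Opti-MEM and cultured for 24 h. They were then treated with compounds at up to 57.5 uM final for 24 h at 37 degrees C before Dual-Glo luminescence readout.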

Activity change, positive = activation, inactive:
CCS(=O)(=O)c1oc(-c2ccc(F)cc2)nc1S(=O)(=O)c1ccccc1 -94%
O=C(c1ccc(Nc2nccc(-c3cc4ccccc4s3)n2)cc1)N1CCC(N2CCCC2)CC1 -37%
O=C(CSc1nc2ncccc2o1)Nc1cccc(C(F)(F)F)c1 3.61%
Cc1nc(SCC(=O)Nc2nsc(-c3ccc(C(C)(C)C)cc3)n2)c2c3c(sc2n1)CCCC3 -29.2%
COc1ccc(N2CCN(S(=O)(=O)CCNC(=O)Cc3ccc(OC)c(OC)c3)CC2)cc1 -5.49%
O=C(CN1C(=O)C2(SCC(=O)N2c2cccc(Cl)c2)c2ccccc21)NCc1ccccc1 (configuration not stated) -16.1%
COc1ccc(-c2cn3nc(N4CCC(C(=O)Nc5cc(Cl)ccc5C)CC4)sc3n2)cc1 15.5%
CC(C)(C)c1ccc(OCC(=O)NCC2(N3CCOCC3)CCCCC2)cc1 -45.2%
COc1ccccc1-c1cc2nc(C)c(CCC(=O)NCCc3cccc(C)c3)c(C)n2n1 -59.9%
O=C(CCCCCn1c(=O)c2sccc2n(CC(=O)Nc2cc(C(F)(F)F)ccc2Cl)c1=O)NCc1ccccc1Cl -22.9%
CCc1cccc(-n2c(=O)c3cccnc3n2CC(=O)NCc2ccc(C)cc2)c1 -6.87%
Cc1ccc(NC(=O)Cn2cnc3onc(-c4ccc(F)cc4)c3c2=O)c(Cl)c1 -17.3%
CC(=O)Nc1ccc(Nc2ncnc3c2cnn3C)cc1 25.9%
CCOc1ccccc1CNC(=O)c1oc2c(c1C)-c1[nH]ncc1CC2 0.667%
CC1CCN(c2ncnc3c2c(-c2ccccc2)cn3-c2ccc(Br)cc2)CC1 -5%
CCCN(CCC)C(=O)Cn1c(=O)n(CCCCCC(=O)NCc2ccc3c(c2)OCO3)c(=O)c2sccc21 -9.74%
C[C@@H](NC(=O)c1ncnc(N)c1Cl)c1ncc(C(=O)Nc2cc(C(F)(F)F)c(Cl)cn2)s1 -16.6%
Cc1ccc(C)n1-c1nnc(N2CCCC(C(=O)Nc3ccccc3Br)C2)s1 (configuration not stated) -2.05%
CCOC(=O)c1c(NC(=O)c2cc(OC)c(OC)c(OC)c2)sc2c1CCCC2 4.62%
COc1ccccc1-c1noc(CCCC(=O)Nc2cccc(C(F)(F)F)c2)n1 -20.4%
CN(C)C(=S)SC(=S)N(C)C -59.8%
CC(C)N(C(=O)Cn1cc(S(=O)(=O)Cc2ccc(Br)cc2)c2ccccc21)C(C)C -18.7%
O=C(c1ccc(F)cc1)N1CCC(c2nc3ccccc3s2)CC1 -12.2% [at 11.5 µM, percent change from vehicle, -100% = no light]
Cc1ccc(CNC(=O)c2cc(-c3ccc(C)cc3)nc3n[nH]c(-c4cccc([N+](=O)[O-])c4)c23)cc1 1.36%
CC1CCN(S(=O)(=O)c2ccc3c(c2)N(CC(=O)NCCCN2CCCCC2)C(=O)CS3)CC1 -1.6%
CCOc1ccc(S(=O)(=O)NCCc2c(C)[nH]c3c(Cl)cccc23)cc1C -17.1%
Cc1c(C(=O)Nc2ccc(F)c(C(F)(F)F)c2)sc2nc(-c3ccccc3)cn12 -34.5%
Cc1ccc(Cl)cc1N1CCN(C(=O)CSc2cc(=O)n(C)c3ccccc23)CC1 -45.8%
Cc1cccc(CC(=O)Nc2ccc3nc(N4CCC(C)CC4)cc(C)c3c2)c1 -13.4%
CC1=C(C(=O)Nc2cc(Cl)ccc2C)C(c2sccc2C)n2ncnc2N1 (configuration not stated) -8.41%
Cc1cc(C)c(NC(=O)Cn2c(=O)n(CCC(=O)NCc3ccccc3Cl)c(=O)c3sccc32)c(C)c1 3.35%
O=C(Nc1nc2ccc(F)cc2s1)c1nc(S(=O)(=O)Cc2ccccc2F)ncc1Cl -43.8%
COc1ccc(C(=O)Nc2ccc3nc(SCC(=O)N(C)c4ccccc4)sc3c2)cc1 -47.8%
CSc1ncc(C(=O)NCc2ccc(C)cc2)c(C)n1 -15.1%
CC(C)(C)c1ccc2c(c1)N(CC(=O)NCCCN1CCN(c3ccccc3F)CC1)C(=O)CO2 -26.7%
CC1(C)CCC(C)(C)c2cc(NC(=O)c3ccc(C(=O)O)cc3)ccc21
CCCCn1c(=O)nc2n(-c3ccc(Br)cc3)c3ccccc3cc-2c1=O -7.17%
CC1CCCN(CCCNC(=O)Cn2ncc3c([nH]c4ccccc43)c2=O)C1 (configuration not stated) -11.2%
CCOC(=O)Cc1ccc(NC(=O)N(Cc2ccc(CC)cc2)Cc2cn[nH]c2-c2ccc(OC)cc2)cc1 -29%
COc1cccc(C(=O)Nc2nc(-c3ccc(Br)cc3)ns2)c1 -38.1%
Cc1nc2ccc(S(=O)(=O)NCC(=O)Nc3ccc(F)cc3F)cc2s1 -9.79%
Cc1ccc(S(=O)(=O)N2CCN(Cc3nc4ccc(C)cc4o3)CC2)c(C)c1 -27.5%
N[C@@H](Cc1cc(I)c(Oc2cc(I)c(O)c(I)c2)c(I)c1)C(=O)O
CCc1ccc(OCCn2c(C3CC(=O)N(Cc4ccc(F)cc4)C3)nc3ccccc32)cc1 (configuration not stated) -49.4%
CC(C)(C)C(=O)Nc1ccccc1C(=O)OCc1cc(=O)n2ccsc2n1 7.66%
Cc1ccc(-n2c(SCC(=O)N3CCCc4ccccc43)nc3c([nH]c4ccccc43)c2=O)cc1 9.74%
CCOC(=O)c1c(C)[nH]c(C)c1S(=O)(=O)N(C)CC(=O)Nc1ccc(C)cc1Br -2.46%
COCCCNC(=O)CSC1=Nc2ccccc2C2=NC(CCC(=O)NCc3ccc(OC)cc3)C(=O)N12 (configuration not stated) 0%
Cc1oc(-c2ccc(Cl)cc2)nc1CN1CCCC(C(=O)NCc2ccccc2)C1 (configuration not stated) -39.6%
Cc1ccc(-n2c(COCC(=O)O)nc3cccnc32)cc1 -10%
Cc1ccc(Cl)cc1N1CCN(C(=O)c2cc3c(=O)oc4ccccc4c3s2)CC1 -20.9%
CCN1CCN(C(c2ccccc2Cl)c2c(O)cc(C)n(CCOC)c2=O)CC1 (configuration not stated) -22.8%
CCCNC(=O)C1CCC(Cn2c(=O)c3sccc3n(CC(=O)NCc3cccc(OC)c3OC)c2=O)CC1 (configuration not stated) -21.2%
Cc1cc(C)c2c(NC(=O)c3ccccc3)c(C(=O)Nc3ccc(F)cc3)sc2n1 -2.37%
Cc1ccc(C)c(N2CCN(CCCNC(=O)c3ccc4nc(CCc5ccccc5)oc4c3)CC2)c1 -0.506%
COc1cccc(N2CC(NC(=O)c3cc(Cl)ccc3OC)CC2=O)c1 (configuration not stated) -16.9%
COc1ccc(OC)c(NS(=O)(=O)c2ccc(N3CCCCS3(=O)=O)cc2)c1 -7.92%
Cc1ccc(C(=O)N/C(=C\c2ccc(Cl)cc2)C(=O)NC2CCCCC2)cc1 -16.7%
O=C(O)C(O)Cc1ccc(O)c(O)c1 (configuration not stated) -7.17%
CC(=O)c1cccc(NC(=O)CN(c2cc(C)cc(C)c2)S(=O)(=O)c2c(C)noc2C)c1 -33.2%
N#Cc1c(C(F)(F)F)cc(-c2cccs2)nc1SCC(=O)Nc1cccc(Cl)c1 -15.3%
Cc1cc(-n2ccnc(NCCc3ccc(S(N)(=O)=O)cc3)c2=O)ccc1Br -27.3%
COc1ccc(-c2onc(C)c2C)cc1S(=O)(=O)N(C)Cc1ccccc1 -51.3%
COc1ccc(NC(=O)c2ccco2)cc1NC(=O)c1cc(OC)c(OC)c(OC)c1 1.94%
Cc1ccc(-c2cn3ccc(C)cc3n2)cc1 -18.4%
CC(C)CCn1c(/C=C/c2ccccc2)nc2ccccc21 1.2%
Cc1cc(C)cc(NC(=O)CSc2nc3nccnc3c(=O)n2CCc2c[nH]c3ccccc23)c1 -30.1%
CCOC(=O)Cn1c(=O)n(C2CCCCC2)c2nc(-c3c(F)cccc3Cl)nc(C(N)=O)c21 -42.3%
Cc1cccc(NC(=O)Cn2c(=O)n(CCCCCC(=O)NCc3ccc4c(c3)OCO4)c(=O)c3sccc32)c1 -17.6%
COC(=O)c1scc(-c2ccc(C)cc2)c1S(=O)(=O)Nc1cc(C)ccc1OC -27.8%
Cc1ccc(NC(=O)c2cnc3sc(N4CCOCC4)nn3c2=O)cc1N(C)C -19.2%
COc1ccc(Nc2nc(C)nc(N)c2S(=O)(=O)c2ccccc2)cc1 -18.9%
COc1ccccc1C(=O)Nc1sc(Nc2ccccc2)nc1C(N)=O -28.3%
O=C(c1ccc2c(c1)N(Cc1ccccc1)C(=O)c1ccccc1S2(=O)=O)N1CCN(Cc2ccccc2)CC1 -33.2%
CC(C)(C)NC(=O)c1oc2ccccc2c1NC(=O)c1ccccc1F 3.97%
Cc1ccc(S(=O)(=O)Nc2ccc3nc(-c4ccc(F)cc4)oc3c2)cc1 -19.6%
CCC(C)NC(=O)CCC(=O)N1Cc2ccccc2Oc2ncccc21 (configuration not stated) -2.57%
CC1=C(C(=O)N2CCN(c3ccccc3)CC2)C2(CCCCC2)OC1=O -5.17%
COc1cc(NC(=O)Cn2c(=O)ccc3cc(S(=O)(=O)N4CCCC4)ccc32)cc(OC)c1 -37.9%
Cc1ccc(CNC(=O)c2c(C)oc3ncnc(N4CCOCC4)c23)cc1 -24.3%
Cc1ccc(-n2nc(C)c(C(=O)O)c2-n2cccc2)cc1 -4.26%
COc1ccc(/C=C\c2onc(C)c2S(=O)(=O)N2CCC(C(=O)Nc3cccc(OC)c3)CC2)cc1 -41.8%
CCOC(=O)c1c(C)[nH]c(C)c1S(=O)(=O)N(C)CC(=O)Nc1ccc(CC)cc1 -7.01%
CC(C)(C)[C@H](NC(=O)c1ccc(N)c(Cl)c1)C(=O)N1CCC[C@@H]1C(=O)N[C@H](C#N)CC(=O)O -10.4% [at 6 µM, percent change from vehicle, -100% = no light]
CCc1ccc(-n2c(=O)c3c4c(sc3n(CC(=O)c3ccc(Br)cc3)c2=O)CCC4)cc1 -23.4%
Cc1cc(C)c2c(CC(=O)N(Cc3ccc(Cl)cc3)Cc3ccco3)coc2c1 -37.6%
O=C(Nc1ccccc1)c1nc[nH]c1C(=O)O -8.93%
COc1cc(OC)c(N(C)C(=O)c2c(C)oc3ncn(CC(C)C)c(=O)c23)cc1Cl -1.67%
Cc1c(-c2ccccc2)nc2c(Cl)cccc2c1C(=O)OCC(=O)c1ccc(F)cc1 21.3%
CCOC(=O)CSc1nc2cc3c(cc2c(=O)n1Cc1ccc(C(=O)NCCc2ccc(OC)c(OC)c2)cc1)OCO3 -4.86%
Cc1ccc(NC(=O)Cn2cc(S(=O)(=O)Cc3ccc(F)cc3)c3ccccc32)cc1Cl -48%
CCOc1ccccc1C(=O)N(Cc1sccc1C)C1CCS(=O)(=O)C1 (configuration not stated) -9.69%
